PubChem BioAssay (Tox21)
Inconclusive results, whose numbers are uncertain, are shown with a selection of clear calls. For part of these data: Potencies beside an inconclusive call are fits to weak or partial responses and may not hold up. Active and inactive are the calls of the source. Unless noted, calls follow the shape of the dose curve; as a rule, active = well fitted curve in the direction sought with a large enough effect in the repeat runs; inconclusive = weak or mixed curves; inactive = no such curve, though single readings can be large; an effect the other way counts as inactive or inconclusive.

Key:
[1] = target: Peroxisome proliferator-activated receptor gamma (Homo sapiens) (UniProt P37231); assay: qHTS assay to identify small molecule agonists of the peroxisome proliferator-activated receptor gamma (PPARg) signaling pathway (AID 743094; active = well fitted activation curve with a large enough effect in the signal ratio in the repeat runs, not every such curve was filed as active; inconclusive = weak or mixed curves, or effect the other way; inactive = no such curve, though single readings can be large or run the other way; the % refers to the signal ratio; as to activation: % is scaled to controls: 0 for no effect and ±100 for the full control effect); conditions: HEK293H PPARg-UAS-bla, beta-lactamase FRET ratio, 17 h; activation: at 57 µM (top of the series) unless noted
Chain of UniProt P37231 (P37231 whole entry, looked up): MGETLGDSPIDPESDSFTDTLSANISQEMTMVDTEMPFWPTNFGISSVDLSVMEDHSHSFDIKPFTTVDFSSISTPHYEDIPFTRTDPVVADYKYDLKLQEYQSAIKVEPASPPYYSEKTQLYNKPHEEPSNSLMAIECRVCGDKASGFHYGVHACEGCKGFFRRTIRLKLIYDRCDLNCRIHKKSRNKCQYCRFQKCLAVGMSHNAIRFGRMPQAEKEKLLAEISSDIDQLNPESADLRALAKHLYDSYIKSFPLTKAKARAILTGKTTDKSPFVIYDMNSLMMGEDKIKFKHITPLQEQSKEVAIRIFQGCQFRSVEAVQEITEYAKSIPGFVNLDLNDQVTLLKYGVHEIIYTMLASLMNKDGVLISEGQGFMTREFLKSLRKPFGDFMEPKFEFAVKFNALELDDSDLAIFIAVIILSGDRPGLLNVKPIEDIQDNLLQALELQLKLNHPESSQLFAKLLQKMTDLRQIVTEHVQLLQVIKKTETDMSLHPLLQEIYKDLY
Method in brief: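 GeneBLAzer PPARg UAS-bla HEK293H cells were plated, rested 5 h, then exposed to compounds for 17 h at 37C. Beta-lactamase activity was read by LiveBLAzer B/G FRET substrate fluorescence after 1 h at room temperature.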

[2] = target: Peroxisome proliferator-activated receptor gamma (Homo sapiens) (UniProt P37231); assay: qHTS assay to identify small molecule antagonists of the peroxisome proliferator-activated receptor gamma (PPARg) signaling pathway (AID 743191; calls by dose curve; also: nearly all actives have a fitted effect of over 30% in size; as to ratio activity, negative = inhibition: % is scaled to controls: 0 for no effect and ±100 for the full control effect); conditions: HEK293H PPARg-UAS-bla, beta-lactamase ratio, antagonist, 17 h
Method in brief: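 GeneBLAzer PPARg UAS-bla HEK293H cells, 5 h post-plating, exposed to compounds 17 h at 37C. LiveBLAzer B/G FRET substrate added for 1 h at room temperature; beta-lactamase reporter read by fluorescence intensity.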

[3] = qHTS assay to identify small molecule antagonists of the peroxisome proliferator-activated receptor gamma (PPARg) signaling pathway - cell viability counter screen (AID 743194); conditions: PPARg-bla HEK293H viability, CellTiter-Glo luminescence, 17 h, co-treated with 50 nM rosiglitazone; activity change, negative = cytotoxicity: at 62.6 µM (top of the series) unless noted; also: nearly all actives have a fitted effect of over 55% in size
Method in brief: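 Cytotoxicity counter screen in PPARg-bla HEK293H cells, same wells as reporter assay. Compounds plus 50 nM rosiglitazone (final) for 17 h at 37 C, then viability read by CellTiter-Glo luminescence.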

[4] = qHTS assay for small molecule agonists of the antioxidant response element (ARE) signaling pathway (AID 743202; active = well fitted activation curve with a large enough effect in the signal ratio in the repeat runs, not every such curve was filed as active; inconclusive = weak or mixed curves, or effect the other way; inactive = no such curve, though single readings can be large or run the other way; the % refers to the signal ratio; as to activation: % is scaled to controls: 0 for no effect and ±100 for the full control effect); conditions: HepG2 ARE-bla reporter, beta-lactamase FRET, 16 h; activation: at 73.3 µM (top of the series) unless noted
Method in brief: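 Agonist mode reporter screen: HepG2 cells with ARE-controlled beta-lactamase are incubated with test compounds for 16 h at 37 C, and beta-lactamase activity is measured as fluorescence of cleaved B/G FRET substrate.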

[5] = qHTS assay to identify small molecule agonists of the peroxisome proliferator-activated receptor delta (PPARd) signaling pathway - cell viability counter screen (AID 743211); conditions: PPARd-bla HEK293H viability, CellTiter-Glo luminescence, 17 h; activity change, negative = cytotoxicity: at 62.6 µM (top of the series) unless noted; also: nearly all actives have a fitted effect of over 55% in size
Method in brief: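 Tox21 library compounds, delivered in DMSO, were incubated 17 h with PPARd-bla HEK293H cells; cytotoxicity was taken from CellTiter-Glo luminescence read 30 min after reagent addition.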

[6] = qHTS assay to identify small molecule antagonists of the peroxisome proliferator-activated receptor delta (PPARd) signaling pathway - cell viability counter screen (AID 743213); conditions: PPARd-bla HEK293H viability, CellTiter-Glo luminescence, 17 h; viability change, negative = cytotoxic: at 62 µM (top of the series) unless noted; also: nearly all actives have a fitted effect of over 50% in size
Method in brief: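 PPARd-bla HEK293H cells (3000/well) got compound plus 300 nM L165041 agonist for 17 h at 37 C. Viability in the same wells came from CellTiter-Glo luminescence after 30 min at room temperature.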

[7] = qHTS assay to identify small molecule agonists of the farnesoid-X-receptor (FXR) signaling pathway - cell viability counter screen (AID 743218); conditions: FXR-bla HEK293T viability, CellTiter-Glo luminescence, 16 h; viability change, negative = cytotoxic: at 62.6 µM (top of the series) unless noted; also: nearly all actives have a fitted effect of over 45% in size
Method in brief: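 FXR-UAS-bla HEK 293T cells exposed to compounds for 16 h at 37C. Cytotoxicity read in the same wells by CellTiter-Glo luminescence after 30 min at room temperature, following the beta-lactamase FRET read.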

[8] = qHTS assay to identify small molecule antagonists of the farnesoid-X-receptor (FXR) signaling pathway - cell viability counter screen (AID 743221; active = well fitted cell-killing curve with a large enough effect in the repeat runs, not every such curve was filed as active; inconclusive = weak or mixed curves, or effect the other way; inactive = no such curve, though single readings can be large or run the other way; also: nearly all actives have a fitted effect of over 50% in size); conditions: FXR-bla HEK293T viability, CellTiter-Glo luminescence, 16 h; activity change, negative = cytotoxicity: at 62.6 µM (top of the series) unless noted
Method in brief: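 Cytotoxicity is taken from ATP luminescence (CellTiter-Glo, 30 min, room temperature) in FXR-bla HEK 293T cells previously incubated 16 h at 37 C with compound and chenodeoxycholic acid at 50 uM final.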

[9] = target: Vitamin D3 receptor (Homo sapiens) (UniProt P11473); assay: qHTS assay to identify small molecule agonists of the vitamin D receptor (VDR) signaling pathway (AID 743222; calls by dose curve); conditions: HEK293T VDR-UAS-bla, beta-lactamase FRET ratio, 16 h; activation: at 63.5 µM (top of the series) unless noted
Chain of UniProt P11473 (P11473 whole entry, looked up): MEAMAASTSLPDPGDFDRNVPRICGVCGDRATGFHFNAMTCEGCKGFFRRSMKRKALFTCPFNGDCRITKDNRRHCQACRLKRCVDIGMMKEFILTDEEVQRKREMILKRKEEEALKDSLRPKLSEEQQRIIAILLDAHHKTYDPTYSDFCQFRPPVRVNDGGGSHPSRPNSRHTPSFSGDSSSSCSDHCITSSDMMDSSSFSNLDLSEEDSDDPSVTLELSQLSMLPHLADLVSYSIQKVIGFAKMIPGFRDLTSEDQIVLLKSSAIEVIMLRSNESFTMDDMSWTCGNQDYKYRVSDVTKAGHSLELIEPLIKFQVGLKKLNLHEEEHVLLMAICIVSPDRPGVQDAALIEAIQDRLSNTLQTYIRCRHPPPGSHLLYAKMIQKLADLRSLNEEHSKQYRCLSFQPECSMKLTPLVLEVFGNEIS
Method in brief: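 VDR-bla cells plated 4 h at 37 C, then exposed to compounds for 16 h at 37 C. Beta-lactamase reporter activity measured by fluorescence after 2 h room-temperature loading with LiveBLAzer B/G FRET substrate.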

[10] = target: Vitamin D3 receptor (Homo sapiens) (UniProt P11473); assay: qHTS assay to identify small molecule antagonists of the vitamin D receptor (VDR) signaling pathway (AID 743223; active = well fitted inhibition curve with a large enough effect in the signal ratio in the repeat runs, not every such curve was filed as active; inconclusive = weak or mixed curves, or effect the other way; inactive = no such curve, though single readings can be large or run the other way; the % refers to the signal ratio); conditions: VDR-UAS-bla HEK293T, beta-lactamase FRET ratio, 16 h; activity change, negative = inhibition: at 61 µM (top of the series) unless noted
Method in brief: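 Quantitative HTS in VDR-bla reporter cells stimulated with 1alpha,25-dihydroxyvitamin D3, 3 nM final. Compound exposure 16 h, 37C, 5% CO2. Read-out: beta-lactamase FRET substrate fluorescence, 2 h RT.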

[11] = qHTS assay for small molecule activators of the heat shock response signaling pathway (AID 743210; active = well fitted activation curve with a large enough effect in the signal ratio in the repeat runs, with a control signal flat, not every such curve was filed as active; inconclusive = weak or mixed curves; the % refers to the signal ratio); conditions: HeLa HSE-bla reporter, beta-lactamase ratio, 5 h; activation: at 62.6 µM (top of the series) unless noted
Method in brief: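 Quantitative high-throughput format using an engineered HeLa line in which heat shock response elements drive beta-lactamase; after 5 h with compound, cells received a B/G FRET substrate and fluorescence was read.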

[12] = target: Peroxisome proliferator-activated receptor delta (Homo sapiens) (UniProt Q03181); assay: qHTS assay to identify small molecule agonists of the peroxisome proliferator-activated receptor delta (PPARd) signaling pathway (AID 743212; calls by dose curve); conditions: HEK293H PPARd-UAS-bla, beta-lactamase FRET ratio, 17 h; activation: at 62.6 µM (top of the series) unless noted
Chain of UniProt Q03181 (Q03181 whole entry, looked up): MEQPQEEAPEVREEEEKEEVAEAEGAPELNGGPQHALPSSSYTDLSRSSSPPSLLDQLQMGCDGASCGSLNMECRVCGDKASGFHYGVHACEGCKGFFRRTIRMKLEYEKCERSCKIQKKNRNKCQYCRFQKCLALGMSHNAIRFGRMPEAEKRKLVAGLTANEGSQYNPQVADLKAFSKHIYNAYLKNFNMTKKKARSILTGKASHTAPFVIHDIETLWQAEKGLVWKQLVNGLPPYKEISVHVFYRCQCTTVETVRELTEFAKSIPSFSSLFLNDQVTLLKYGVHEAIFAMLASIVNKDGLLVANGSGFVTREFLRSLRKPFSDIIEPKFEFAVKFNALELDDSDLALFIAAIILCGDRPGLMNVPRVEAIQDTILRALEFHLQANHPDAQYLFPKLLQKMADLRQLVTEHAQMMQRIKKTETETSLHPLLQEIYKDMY
Method in brief: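 Quantitative high-throughput agonist screen in a HEK293H beta-lactamase reporter line under UAS control. Compounds in DMSO, at 37 C. Fluorescence read after 2 h with FRET substrate at room temperature.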

[13] = target: Bile acid receptor (Homo sapiens) (UniProt Q96RI1); assay: qHTS assay to identify small molecule antagonists of the farnesoid-X-receptor (FXR) signaling pathway (AID 743217; active = well fitted inhibition curve with a large enough effect in the signal ratio in the repeat runs, not every such curve was filed as active; inconclusive = weak or mixed curves, or effect the other way; inactive = no such curve, though single readings can be large or run the other way; the % refers to the signal ratio); conditions: HEK293T FXR-UAS-bla, beta-lactamase ratio, CDCA-stimulated, 16 h; activity change, negative = inhibition: at 62.6 µM (top of the series) unless noted
Chain of UniProt Q96RI1 (Q96RI1 whole entry, looked up): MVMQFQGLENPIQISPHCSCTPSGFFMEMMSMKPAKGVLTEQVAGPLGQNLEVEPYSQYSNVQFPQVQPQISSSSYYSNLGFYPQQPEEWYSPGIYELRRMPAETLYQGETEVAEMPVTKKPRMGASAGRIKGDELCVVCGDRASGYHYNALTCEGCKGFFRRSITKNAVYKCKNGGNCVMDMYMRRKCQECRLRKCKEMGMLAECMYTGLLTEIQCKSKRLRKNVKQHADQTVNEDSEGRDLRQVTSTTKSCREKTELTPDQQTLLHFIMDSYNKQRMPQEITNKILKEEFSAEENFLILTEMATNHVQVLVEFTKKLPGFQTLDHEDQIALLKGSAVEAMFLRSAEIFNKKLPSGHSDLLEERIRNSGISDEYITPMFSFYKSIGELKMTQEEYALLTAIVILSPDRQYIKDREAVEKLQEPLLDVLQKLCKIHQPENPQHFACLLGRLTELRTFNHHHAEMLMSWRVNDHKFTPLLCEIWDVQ
Method in brief: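 FXR-UAS-bla HEK 293T cells (beta-lactamase reporter) given compound plus chenodeoxycholic acid (50 uM final), 16 h at 37C. LiveBLAzer B/G FRET substrate added for 2 h at room temperature; fluorescence read.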

[14] = target: Bile acid receptor (Homo sapiens) (UniProt Q96RI1); assay: qHTS assay to identify small molecule agonists of the farnesoid-X-receptor (FXR) signaling pathway (AID 743220; active = well fitted activation curve with a large enough effect in the signal ratio in the repeat runs, not every such curve was filed as active; inconclusive = weak or mixed curves, or effect the other way; the % refers to the signal ratio); conditions: HEK293T FXR-UAS-bla, beta-lactamase FRET ratio, 16 h; activation: at 62.6 µM (top of the series) unless noted
Method in brief: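 Beta-lactamase reporter under UAS control in GeneBLAzer FXR HEK 293T cells (5000/well) measured with LiveBLAzer FRET substrate after 2 h at room temperature. Compound exposure lasted 16 h at 37C.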

[15] = qHTS assay for small molecule activators of the heat shock response signaling pathway - cell viability counter screen (AID 743209); conditions: HSE-bla HeLa viability, CellTiter-Glo luminescence, 5 h; activity change, negative = cytotoxicity: at 62.6 µM (top of the series) unless noted; also: nearly all actives have a fitted effect of over 50% in size
Method in brief: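 HSE-bla HeLa cells plated overnight, then exposed to Tox21 compounds (23 nL in DMSO) for 5 h at 37 C. After the bla reporter read, CellTiter-Glo was added in the same wells and luminescence read after 30 min at room temperature.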

[16] = target: Peroxisome proliferator-activated receptor delta (Homo sapiens) (UniProt Q03181); assay: qHTS assay to identify small molecule antagonists of the peroxisome proliferator-activated receptor delta (PPARd) signaling pathway (AID 743215; active = well fitted inhibition curve with a large enough effect in the signal ratio in the repeat runs, not every such curve was filed as active; inconclusive = weak or mixed curves, or effect the other way; inactive = no such curve, though single readings can be large or run the other way; the % refers to the signal ratio;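 also: cells stimulated with agonist L165041 at 300 nM final during compound exposure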; as to ratio activity, negative = inhibition: % is scaled to controls: 0 for no effect and ±100 for the full control effect); conditions: HEK293H PPARd-UAS-bla, beta-lactamase FRET ratio, antagonist, 17 h; ratio activity, negative = inhibition: at 62 µM (top of the series) unless noted
Method in brief: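 PPARd-bla HEK293H cells (UAS-bla reporter) preincubated 5 h, then given compound plus 300 nM final L165041 agonist for 17 h at 37 C. Beta-lactamase activity read by LiveBLAzer B/G FRET substrate fluorescence after 2 h at room temperature.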

[17] = qHTS assay for small molecule agonists of the antioxidant response element (ARE) signaling pathway - cell viability counter screen (AID 743203; calls by dose curve; also: nearly all actives have a fitted effect of over 55% in size); conditions: ARE-bla HepG2 viability, CellTiter-Glo luminescence, 16 h; viability change, negative = cytotoxic: at 73.3 µM (top of the series)
Method in brief: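 ARE-bla HepG2 cells were plated, rested 5 h at 37C/5% CO2, then exposed to compounds in DMSO for 16 h. Viability was read as CellTiter-Glo luminescence after 30 min at room temperature, in the same wells as the ARE screen.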

[18] = qHTS assay to identify small molecule agonists of the vitamin D receptor (VDR) signaling pathway - cell viability counter screen (AID 743224); conditions: VDR-bla HEK293T viability, CellTiter-Glo luminescence, 16 h; activity change, negative = cytotoxicity: at 62.6 µM (top of the series); also: nearly all actives have a fitted effect of over 50% in size
Method in brief: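 VDR-bla cells, 4 h after plating, exposed to compounds for 16 h at 37C; viability then read in the same wells as CellTiter-Glo luminescence after 30 min at room temperature, following the bla FRET read.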

[19] = ratio activity, negative = inhibition: at 62.6 µM (top of the series) unless noted
Potency is read from the fitted curve at half-maximal effect; tags tell the direction and shape of the fitted curve or compound fluorescence and quenching.

CC(C)c1ccc2c(c1)CC[C@H]1[C@](C)(CN)CCC[C@]21C
active: Potency [3] 11 µM | Potency [5] 11 µM | Potency [6] 21.9 µM | Potency [7] 12.3 µM | Potency [8] 54.9 µM | Potency [10] 49 µM
inconclusive: Potency [1] 54.9 µM [falling, single point] | Potency [2, 19] 27.5 µM [cytotoxic, partial curve, poor fit] | Potency [4] 13.7 µM [falling, full curve] | Potency [9] 11 µM [inhibitor, partial curve, poor fit]

CC(C)C[C@H](NC(=O)[C@H](CCc1ccccc1)NC(=O)CN1CCOCC1)C(=O)N[C@@H](Cc1ccccc1)C(=O)N[C@@H](CC(C)C)C(=O)[C@@]1(C)CO1
inconclusive: Potency [1] 0.0756 µM [fluorescent, full curve] | Potency [2, 19] 0.133 µM [full curve] | Potency [3] 0.237 µM [cytotoxic, full curve] | Potency [11] 0.106 µM | Potency [12] 0.335 µM [rising, full curve] | Potency [6] 0.237 µM [cytotoxic, full curve] | Potency [13] 1.19 µM [rising, full curve] | Potency [7] 0.211 µM [cytotoxic, full curve] | Potency [14] 0.668 µM [rising, full curve] | Potency [8] 0.75 µM [falling, full curve] | Potency [9] 2.37 µM [rising, partial curve] | Potency [10] 1.51 µM [full curve]
active: Potency [4] 0.0668 µM | Potency [5] 0.237 µM

CCCCCCCCCc1ccc(OCCOCCO)cc1
inconclusive: Potency [1] 10.7 µM [rising, full curve, poor fit] | ratio activity, negative = inhibition [2, 19] -28.4% [at 29.1 µM] | Potency [3] 16.3 µM [cytotoxic] | Potency [11] 20.5 µM [single point] | Potency [5] 20.5 µM [cytotoxic, single point] | ratio activity, negative = inhibition [16] -57.8% [at 28.9 µM] | Potency [13] 23 µM [single point] | Potency [7] 23 µM [cytotoxic, partial curve, poor fit]
active: Potency [4] 1.62 µM | Potency [15] 23 µM | Potency [6] 20.5 µM

CC(C)(C)C1=CC(=O)C=C(C(C)(C)C)C1=O
active: Potency [3] 24.6 µM | Potency [17] 54.5 µM | Potency [15] 43.7 µM
inconclusive: activation [1] 31.5% | ratio activity, negative = inhibition [2, 19] 1.97% | Potency [4] 30.6 µM | Potency [11] 49 µM [falling, partial curve] | Potency [5] 61.7 µM [cytotoxic, single point] | Potency [7] 49 µM [cytotoxic, single point]

CCC(C)c1cc([N+](=O)[O-])cc([N+](=O)[O-])c1OC(=O)OC(C)C (stereo unspecified)
active: Potency [3] 49 µM | Potency [15] 21.9 µM | Potency [18] 54.9 µM
inconclusive: Potency [1] 5.49 µM [inhibitor] | Potency [2, 19] 9.77 µM [rising, partial curve] | Potency [4] 7.7 µM [rising, partial curve] | Potency [11] 45.3 µM | Potency [5] 30.9 µM [cytotoxic, partial curve, poor fit] | Potency [6] 54.9 µM [cytotoxic, single point] | Potency [16] 21.9 µM | Potency [13] 13.8 µM [rising, full curve] | Potency [7] 54.9 µM [cytotoxic, single point] | Potency [14] 3.89 µM [fluorescent, full curve] | Potency [8] 69.2 µM [falling, single point] | Potency [9] 11 µM [rising, full curve] | Potency [10] 49 µM [fluorescent, partial curve]

CC1(C)O[C@@H]2C[C@H]3[C@@H]4C[C@H](F)C5=CC(=O)C=C[C@]5(C)[C@@]4(F)[C@@H](O)C[C@]3(C)[C@]2(C(=O)CO)O1
inconclusive: ratio activity, negative = inhibition [2, 19] -1.45% | viability change, negative = cytotoxic [7] 0.244% [cytotoxic] | activity change, negative = inhibition [10] 34.1%
inactive: Potency [1] | ratio activity, negative = inhibition ([2]; at 62.6 µM (top of the series)) 6.19% | Potency [4]
